The other results are listed elsewhere or left out. Sequences were assembled here from the parent chain. Inactive controls read about 0.05.
B1: TEV protease; numbered along this chain (parent)
chain: MGESLFKGPRDYNPISSSICHLTNESDGHTTSLYGIGFGPFIITNKHLFRRNNGTLVVQSLHGVFKVKDTTTLQQHLVDGRDMIIIRMPKDFPPFPQKLKFREPQREERICLVTTNFQTKSMSSMVSDTSCTFPSGDGIFWKHWIQTKDGQCGSPLVSTRDGFIVGIHSASNFTNTNNYFTSVPKNFMELLTNQEAQQWVSGWRLNADSVLWGGHKVFMVKPEEPFQPVKEATQL

Variants of: B1
Test: raw area under fraction-flipped curve 0-4 h after induction (AUC4h, not background-subtracted), DNA-recorder readout of cleavage of the substrate (dimensionless); higher = more cleavage of the substrate by the protease variant
Details: temperature: 34 °C; time window: 0-4 h after rhamnose induction
Procedure: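 In vivo DNA recorder in E. coli TOP10(DE3) ΔrhaA at 34 °C. Each TEVp single-site mutant (parent TEVp 0) is paired with a single-site variant of the 7-mer TEVs (canonical ENLYFQ|S). The substrate sits between flexible linkers in a Bxb1-sfGFP-TEVs-SsrA fusion, so cleavage stabilises Bxb1 and speeds flipping of a recombination array, read by NGS. The value is the raw area under the fraction-flipped curve over 0-4 h after rhamnose induction (AUC4h), with ≥20 reads per time point. It is not background-subtracted; inactive controls average about 0.047.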
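Also: Bxb1 expression induced with 0.2% (w/v) L-rhamnose at OD600 near 0.5, cultures sampled hourly, flipped fraction per protease–substrate barcode pair counted by paired-end Illumina sequencing.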

| Variant | area with substrate ENLAFQS | area with substrate ENLDFQS | area with substrate ENLEFQS | area with substrate ENLFFQS | area with substrate ENLHFQS | area with substrate ENLIFQS | area with substrate ENLKFQS | area with substrate ENLLFQS | area with substrate ENLNFQS | area with substrate ENLQFQS | area with substrate ENLRFQS | area with substrate ENLSFQS | area with substrate ENLCFQS | area with substrate ENLGFQS | area with substrate ENLMFQS | area with substrate ENLPFQS | area with substrate ENLVFQS | area with substrate ENLWFQS | area with substrate ENLTFQS |
| --- | --- | --- | --- | --- | --- | --- | --- | --- | --- | --- | --- | --- | --- | --- | --- | --- | --- | --- | --- |
| E224H | 0.0526 | 0.0686 | 0.0585 | 0.0893 | 0.0614 | 0.0751 | 0.0748 | 0.077 | 0.0705 | 0.0718 | 0.0767 | 0.0512 |  |  |  |  |  |  |  |
| E224V | 0.0737 | 0.0557 | 0.0703 | 0.0897 | 0.0747 |  | 0.0716 | 0.0456 | 0.0187 |  |  |  | 0.0709 | 0.0468 | 0.086 |  |  |  |  |
| E224W | 0.0758 | 0.0603 |  | 0.113 | 0.0557 | 0.0773 | 0.0804 | 0.0687 | 0.0662 | 0.0769 | 0.0752 | 0.0615 | 0.0834 | 0.065 | 0.0599 | 0.044 | 0.0742 | 0.0612 |  |
| E224C | 0.0662 | 0.0594 | 0.0588 | 0.0833 | 0.0755 | 0.0861 | 0.0674 | 0.0745 | 0.0633 | 0.073 | 0.0624 | 0.0919 |  | 0.0705 |  | 0.0546 | 0.0799 | 0.0627 |  |
| E224S | 0.0685 | 0.0758 | 0.0615 | 0.105 | 0.0739 | 0.0774 | 0.0707 | 0.0325 | 0.0612 |  | 0.076 | 0.0747 | 0.0706 | 0.0688 | 0.0712 | 0.0513 | 0.0626 | 0.0846 |  |
| E224A | 0.0476 | 0.0612 |  | 0.104 | 0.0738 | 0.0801 | 0.0591 | 0.0737 | 0.0604 | 0.0613 | 0.0769 | 0.063 | 0.0818 | 0.0545 | 0.0855 | 0.0725 | 0.0779 | 0.0945 |  |
| E224R | 0.077 | 0.0708 |  | 0.0752 | 0.0747 |  | 0.0237 |  | 0.0675 | 0.061 | 0.0835 | 0.061 |  | 0.0845 |  |  |  |  |  |
| E224Y | 0.0648 |  | 0.0674 | 0.0775 |  | 0.0782 | 0.0802 |  |  | 0.0973 | 0.0624 | 0.0742 | 0.0684 | 0.0585 | 0.0559 | 0.0744 | 0.0653 | 0.0586 |  |
| L112I |  | 0.0483 | 0.0637 | 0.0707 | 0.0577 |  | 0.0821 |  | 0.0784 | 0.0678 | 0.0784 | 0.0798 | 0.0768 | 0.0631 |  | 0.0704 |  |  |  |
| L112W |  | 0.0537 |  | 0.0994 | 0.062 |  |  |  | 0.0569 | 0.0498 | 0.0492 | 0.0673 | 0.0552 | 0.0526 | 0.0479 | 0.0417 | 0.061 | 0.0514 | 0.0631 |
| C152A |  | 0.0657 | 0.062 | 0.0631 | 0.0646 | 0.0616 | 0.0604 | 0.0586 | 0.0496 |  | 0.0766 | 0.0593 | 0.0702 | 0.0457 | 0.0651 |  |  |  |  |
| I167K |  | 0.0586 | 0.0582 | 0.0692 | 0.055 | 0.0583 | 0.0605 | 0.0541 | 0.0635 | 0.0604 |  | 0.0731 | 0.0357 | 0.0611 | 0.0685 | 0.0421 |  | 0.0612 |  |

From the supplement of paper PMC12217912
